Data published in publication PMC10726135.
This is one part of the list. At the low end of the ranking the order means little. The protein was read in a cell extract, so binding may be indirect.

Target: T1, HNF4alpha8 (COS-7 nuclear extract) (UniProt P41235-5)
T1 sequence: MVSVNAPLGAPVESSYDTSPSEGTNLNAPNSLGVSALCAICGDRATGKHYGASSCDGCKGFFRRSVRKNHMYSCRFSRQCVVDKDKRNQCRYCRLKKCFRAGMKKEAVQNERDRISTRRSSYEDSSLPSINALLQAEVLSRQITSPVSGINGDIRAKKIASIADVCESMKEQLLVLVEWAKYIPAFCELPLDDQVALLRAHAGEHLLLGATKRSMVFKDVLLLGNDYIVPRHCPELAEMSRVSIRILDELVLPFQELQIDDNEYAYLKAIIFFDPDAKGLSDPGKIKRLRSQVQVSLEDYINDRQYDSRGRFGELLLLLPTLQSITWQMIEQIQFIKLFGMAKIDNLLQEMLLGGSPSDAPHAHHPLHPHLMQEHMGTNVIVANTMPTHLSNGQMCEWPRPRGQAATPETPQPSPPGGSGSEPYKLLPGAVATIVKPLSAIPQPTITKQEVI
Test: protein-binding microarray
Conditions: COS-7 nuclear extract on double-stranded Agilent 4x180k PBM; binding buffer, salt, pH and temperature not given; high values mean tight binding; double strand, one strand shown; sequences stand for … in …GCCTAGGGAGATTAGAGTATCGGTCGA

| Sequence | binding signal (log2 normalized intensity) |
| --- | --- |
| CCTCCCAGGGACACATGCCCCTTCCCTCCC | 4.28 |
| GGCCAGGGAGTACACCCCTCACTCCCTCCA | 1.96 |
| TCCAACCCTCCGTTTCTCTGGGCCTGATAG | -1.24 |
| CTGAGCCCGCTCCACTCCGGGCGATCCGGG | -1.39 |
| AGAATGGAATTCCAGAGAGACTCACTGCAA | -1.37 |
| TCTTGAAATCCCAAGCAGTGATATTCTCTC | -1.28 |
| ACCTTCTCCCACTTCCCTGCCTTTGTATAA | 1.57 |
| GGGGCTTTTGTTTAGGAAGAGATCAAAGTT | 1.19 |
| AGAACAAACAAATTTAGCAAGACTGCAAAA | -1.24 |
| GAGTGACCTCTGGTCATTCAATGTTTGGGA | 2.66 |
| TTGTCCTCTGATTCTCCAGTCCGAAGGTCC | 3.43 |
| AAAGGCACTTTGATAACTGGGTAAATGTAC | 1.15 |
| GAAGGCCTCTGATGATTCTAAAGGCACAAT | -1.18 |
| CGAGCACGTCGAGCAGGCCCCGTCCCCGCC | 4.5 |
| AGCTGCTTCAGGAGCCCCCTGGGGGAGGTT | -1.05 |
| AGTCCAAATTCCTAGCCCTCTTTCAAAGAC | -1.22 |
| GAGACCTCTGCAGGAGGACTGGATCAATGG | -1.03 |
| TGCACATGCCCCTCCCAGGGACACATGCCC | 4 |
| TACGTTTGTGATACACCTTGCCTGGCTACC | -0.733 |
| GAACAGGTCAAAGGTCAGTTTCTTTAAGAC | 7.63 |
| TGTGACAGAAGTCATGTCTCATTGCCCCTT | 4.58 |
| GGCTTGATCCCTGAACTTTGCTCCCACCCT | 6.25 |
| TCAGACCTGACCTTTGGATTCCCAGATGGA | 5.76 |
| TCCCATCTGTGCTCATTATTATCAGCAAGA | -1.02 |

| Sequence | binding signal (log2 normalized intensity) |
| --- | --- |
| GGCCTGATAGATTTTGCATTGCTCACATAG | -0.853 |
| GGAAGGTATTGTCATTATTCCAGCTTTACA | -1.04 |
| TTGCTTAAACCTAGCTACTAGCCATTTCGG | -1.42 |
| AGTTTTGTTATCTCTGCTTGCAATTTTTGT | 1.15 |
| ATGTGGTATTAACATGTAAATATGACCTTT | 8.01 |
| GCCTGCAGGTGAATGGAAACAAGAGAGTCT | -1.34 |
| CCATCCTTGTTTTGGGGGTTGGTATTACAA | 1.53 |
| CGCAGTCGCCTGCAAGACAATACCTTCACT | -1.29 |
| GGGATGGACTTTGGCCCTCAGCCCAATGTG | 7.1 |
| TAGTAAAGCTCATGAAGCTTCCCCTTTAAC | -0.601 |
| GGGCACCTCTGAAAGCACTTGTAGGCCTGT | -1.28 |
| AAAGAGGCTACCAGACCTTGGCCTGCTCCT | -1.32 |
| GGTTAAAAGTTCTGCTGAGTATCCAAAGGT | 1.58 |
| CAGAAAGTTAGGTTCTGGCACCTGAAGCTG | -1.19 |
| ACTGCTCCAGTGGACATTGGCCCTTTGACC | 6.76 |
| TTGGTCTCATGGGCCTAAACATTCCCCTTT | 2.25 |
| CCTTTGGTCTAAACCTACTTAGATCAAGAT | 0.214 |
| CTGTAGTAAGGGAGTGTGGGGTGGTGTCAG | 0.31 |
| GTTGCAGTGAGCTAAGATTGGACTCTGCAC | 6.55 |
| ACCAGAGCCGTCTGGTAAATTTCTAACACT | -1.48 |
| TTTGGACTTTGGACTTGGGACTTTCGAGTT | 8.22 |
| TCCATTTCCCACATTGCTCTCCCATAAGAA | -0.979 |
| TGGAAATTCAGAACTTTGACCACCTACTGT | 3.02 |
| TACAATTCCAGCAAGGATGGGGGCAAAGGT | 3.95 |

| Sequence | binding signal (log2 normalized intensity) |
| --- | --- |
| GAATGAGTTTCCAGAATTGCTTTACGAAGT | -1.23 |
| CTGGCCTCGGGGAGCTGTGGGCCTCACACC | -1.27 |
| CTGAAAGCTTCAAAGGACAGGCTGACTATC | -1.27 |
| GAAGATAAGCAGATCTTTAGAGACAGAAAA | -1.32 |
| AAACGGGTTTTACCCTGGGAATGGAGAGAG | -1.15 |
| AAGCAGTAGACTAAAACCCATATCTGACTG | -1.3 |
| CTTCAGCCAGATAGCCACTGGGGTCATGGA | 3.08 |
| AGGCTGACCCGTGAATCCTTAAGATTCCTG | -1.3 |
| CTCTGTTGCATGGTTGACATACTTCTGAGT | 1.07 |
| GCATGAACCTTTGCTCCCTGGGAACCCCTC | 3.47 |
| TAGGAATGTCATGCAGCTAAAAGCAGCATC | -1.21 |
| TTGGAGACGCAGAGAAGCACTGCAGTTTAA | -1.37 |
| CATTAGGAGGAAAAAGAATGCCTCTTTCAA | -1.34 |
| CTGCACTGCAATGACAATAAATTATACCAA | -1.32 |
| ATGGAGCTGGAGGGCAAAGGTCAGAGGCTG | 6.88 |
| GGCCTGGCCACTCCGTTTGCTATGGCCTTT | 2.36 |
| TATTTAAGGGTTCAGGGCAGAAGAGGTTAT | 1.2 |
| AAACAGTACTGACATCTATCAACATATCTT | -1.32 |
| CCCTTTGGCCTTTCTAATTATTTACAGGGA | 1.72 |
| GTGTATGATGACGCCACGCCGCTCTTTCTC | -1.27 |
| AAGAGCATGGCGCCAGGGAGTGATTGCCCT | 2.5 |
| GCGCCGCGCCGGGGAAGCTGTTGGGCGCCG | 1.42 |
| GGCAGACTCAAGATAGAGGGCTGCCAAAGC | -1.4 |
| CTGGAGAATCCTCTCTTGCTCAGGTGAGGC | -1.24 |
